≈ marks a conversion by molar mass, not a printed value. Where a SMILES comes first, the peptide text is derived from it.
Tested on: P. aeruginosa ATCC 27853
Conditions: Table 7B; dose to kill 90% of input cells in 2 h at 37° C. in 1/100 strength HBSS; about 10^7 CFU/ml

## CC[C@H](C)[C@H](NC(=O)[C@H](Cc1c[nH]c2ccccc12)NC(=O)[C@@H]1CCCN1C(=O)[C@H](CC(C)C)NC(=O)[C@H](Cc1ccccc1)NC(=O)[C@H](CO)NC(=O)[C@H](CO)NC(=O)[C@@H](NC(=O)[C@H](Cc1ccccc1)NC(=O)[C@H](CCCNC(=N)N)NC(=O)[C@@H](NC(=O)[C@H](Cc1ccccc1)NC(=O)[C@@H](NC(=O)[C@H](CCC(=O)O)NC(=O)[C@@H]1CCCN1C(=O)[C@@H]1CCCN1C(=O)[C@@H](NC(=O)CNC(=O)[C@H](CO)NC(=O)[C@H](CO)NC(=O)[C@H](CCCCN)NC(=O)CN)C(C)C)C(C)C)[C@@H](C)O)C(C)C)C(=O)N[C@@H](CCCNC(=N)N)C(=O)N[C@H](C(=O)N[C@H](C(=O)N[C@@H](CCSC)C(=O)N[C@@H](CCCNC(=N)N)C(=O)O)[C@@H](C)O)[C@@H](C)O [CG 198-223] (H-GKSSGVPPEVFTRFVSSFLPWIRTTMR-OH; N-terminus and C-terminus assumed)
  ED90: 115 µg/mL (≈ 37.3 µM)

From US5798336A, “Antimicrobial peptides” (priority 1995, dated 1998)
